Laboratory results: paper doi:10.1101/2024.05.01.591800
Results are given in words; binding and its absence hold for the method and conditions named. Binding seen in cells or lysates may run through a third protein. Some results given as binding are weak or reduced against the parent protein; the word gives no strength. For some of these results: Where a sequence is shown, tags or fusion partners need not be part of it.

T1: FLAG-tagged GBP5 (guanylate-binding protein 5) (UniProt Q96PP8)
T1 sequence: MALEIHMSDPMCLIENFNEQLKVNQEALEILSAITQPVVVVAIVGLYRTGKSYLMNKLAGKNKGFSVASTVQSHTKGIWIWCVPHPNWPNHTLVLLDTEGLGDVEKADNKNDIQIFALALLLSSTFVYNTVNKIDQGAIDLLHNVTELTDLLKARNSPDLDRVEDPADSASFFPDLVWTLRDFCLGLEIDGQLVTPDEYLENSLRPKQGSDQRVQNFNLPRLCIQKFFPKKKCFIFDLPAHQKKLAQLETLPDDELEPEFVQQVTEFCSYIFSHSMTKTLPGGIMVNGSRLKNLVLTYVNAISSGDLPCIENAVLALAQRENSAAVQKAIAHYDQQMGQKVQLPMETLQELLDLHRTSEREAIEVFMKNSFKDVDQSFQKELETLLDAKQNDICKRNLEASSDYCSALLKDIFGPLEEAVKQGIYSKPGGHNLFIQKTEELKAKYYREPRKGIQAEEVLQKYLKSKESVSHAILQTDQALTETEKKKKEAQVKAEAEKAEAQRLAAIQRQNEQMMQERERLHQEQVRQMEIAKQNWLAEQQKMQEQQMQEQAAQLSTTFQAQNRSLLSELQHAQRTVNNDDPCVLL

T2: FLAG-GBP5 mutant M5 (E417A/K421A point mutations in the MD domain) (UniProt Q96PP8)
T2 sequence: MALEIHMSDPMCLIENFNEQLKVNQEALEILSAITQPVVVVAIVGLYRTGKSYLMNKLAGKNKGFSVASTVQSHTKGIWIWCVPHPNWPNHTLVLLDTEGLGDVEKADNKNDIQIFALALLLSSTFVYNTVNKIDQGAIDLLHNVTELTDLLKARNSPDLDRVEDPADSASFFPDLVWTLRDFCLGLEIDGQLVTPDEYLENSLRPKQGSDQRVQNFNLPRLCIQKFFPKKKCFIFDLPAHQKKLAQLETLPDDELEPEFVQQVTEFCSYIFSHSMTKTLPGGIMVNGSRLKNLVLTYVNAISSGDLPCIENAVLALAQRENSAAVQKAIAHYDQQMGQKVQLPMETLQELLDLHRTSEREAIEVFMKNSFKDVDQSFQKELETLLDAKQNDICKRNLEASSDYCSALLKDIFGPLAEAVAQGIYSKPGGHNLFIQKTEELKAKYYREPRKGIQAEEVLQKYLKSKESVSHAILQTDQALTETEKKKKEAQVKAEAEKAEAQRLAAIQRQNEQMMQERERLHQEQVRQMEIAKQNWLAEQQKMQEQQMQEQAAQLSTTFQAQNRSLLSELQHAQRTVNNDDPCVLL

T3: FLAG-tagged GBP5-C583A (UniProt Q96PP8)
T3 sequence: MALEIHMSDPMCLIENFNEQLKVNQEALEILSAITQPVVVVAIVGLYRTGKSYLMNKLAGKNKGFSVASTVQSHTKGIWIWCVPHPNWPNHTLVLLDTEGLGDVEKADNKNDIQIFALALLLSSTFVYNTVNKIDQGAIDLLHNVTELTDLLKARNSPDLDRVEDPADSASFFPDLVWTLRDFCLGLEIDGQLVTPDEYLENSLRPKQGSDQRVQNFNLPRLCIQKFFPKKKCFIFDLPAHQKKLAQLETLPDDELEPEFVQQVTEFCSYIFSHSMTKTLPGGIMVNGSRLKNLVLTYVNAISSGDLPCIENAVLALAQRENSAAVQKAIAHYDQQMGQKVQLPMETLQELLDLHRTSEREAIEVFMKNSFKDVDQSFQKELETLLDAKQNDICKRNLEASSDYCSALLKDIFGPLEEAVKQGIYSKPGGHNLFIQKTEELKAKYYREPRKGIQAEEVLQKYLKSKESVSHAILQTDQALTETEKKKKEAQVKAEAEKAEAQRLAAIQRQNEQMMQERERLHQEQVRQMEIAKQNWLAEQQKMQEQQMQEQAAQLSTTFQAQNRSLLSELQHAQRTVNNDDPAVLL

T4: IFN-induced endogenous GBP5 (human (endogenous in HEK 293T)) (UniProt Q96PP8)
T4 sequence: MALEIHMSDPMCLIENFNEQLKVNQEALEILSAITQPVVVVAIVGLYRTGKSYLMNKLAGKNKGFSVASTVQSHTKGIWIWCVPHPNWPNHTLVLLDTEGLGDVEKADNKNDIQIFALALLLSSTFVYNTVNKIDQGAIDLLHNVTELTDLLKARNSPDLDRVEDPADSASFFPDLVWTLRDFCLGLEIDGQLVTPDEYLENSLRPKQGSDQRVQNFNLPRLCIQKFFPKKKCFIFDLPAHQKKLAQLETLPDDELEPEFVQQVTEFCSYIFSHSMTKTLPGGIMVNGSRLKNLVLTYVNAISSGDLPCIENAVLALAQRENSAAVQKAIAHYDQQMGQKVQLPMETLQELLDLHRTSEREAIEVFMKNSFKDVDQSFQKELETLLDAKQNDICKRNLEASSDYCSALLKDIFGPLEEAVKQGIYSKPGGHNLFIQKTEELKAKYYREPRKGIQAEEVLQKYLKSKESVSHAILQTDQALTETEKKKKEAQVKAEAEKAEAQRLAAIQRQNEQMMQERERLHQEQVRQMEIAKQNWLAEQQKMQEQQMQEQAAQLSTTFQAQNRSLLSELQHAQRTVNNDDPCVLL


Assays:
[1] = target: T1, FLAG-tagged GBP5 (guanylate-binding protein 5); test: co-IP; 293T cells co-transfected for 48 h with FLAG-GBP5 (WT or mutant) and a MYC-tagged OST subunit; lysates (Pierce IP Lysis Buffer) immunoprecipitated overnight at 4°C with anti-FLAG on Dynabeads Protein G; washes include 500 mM NaCl; anti-MYC blot
[2] = target: T2, FLAG-GBP5 mutant M5 (E417A/K421A point mutations in the MD domain); test: as above
[3] = target: T1, FLAG-tagged GBP5 (guanylate-binding protein 5); test: co-IP; 293T cells transfected for 48 h with FLAG-GBP5 or FLAG-GBP5-C583A; anti-FLAG immunoprecipitation; washes include 500 mM NaCl; blots for endogenous RPN2, RPN1 and DDOST
[4] = target: T3, FLAG-tagged GBP5-C583A; test: as above
[5] = target: T4, IFN-induced endogenous GBP5 (human (endogenous in HEK 293T)); test: co-IP; 293T cells stimulated with 100 ng/ml IFN-γ; lysates immunoprecipitated with anti-GBP5 antibody; blots for endogenous RPN1, RPN2, DDOST and GBP5

Binder	binding [1]	binding [2]	binding [3]	binding [4]	binding [5]
MYC-tagged RPN1 (protein, UniProt P04843 24-607) ASSEAPPLINEDVKRTVDLSSHLAKVTAEVVLAHLGGGSTSRATSFLLALEPELEARLAHLGVQVKGEDEEENNLEVRETKIKGKSGRFFTVKLPVALDPGAKISVIVETVYTHVLHPYPTQITQSEKQFVVFEGNHYFYSPYPTKTQTMRVKLASRNVESYTKLGNPTRSEDLLDYGPFRDVPAYSQDTFKVHYENNSPFLTITSMTRVIEVSHWGNIAVEENVDLKHTGAVLKGPFSRYDYQRQPDSGISSIRSFKTILPAAAQDVYYRDEIGNVSTSHLLILDDSVEMEIRPRFPLFGGWKTHYIVGYNLPSYEYLYNLGDQYALKMRFVDHVFDEQVIDSLTVKIILPEGAKNIEIDSPYEISRAPDELHYTYLDTFGRPVIVAYKKNLVEQHIQDIVVHYTFNKVLMLQEPLLVVAAFYILFFTVIIYVRLDFSITKDPAAEARMKVACITEQVLTLVNKRIGLYRHFDETVNRYKQSRDISTLNSGKKSLETEHKALTSEIALLQSRLKTEGSDLCDRVSEMQKLDAQVKELVLKSAVEAERLVAGKLKKDTYIENEKLISGKRQELVTKIDHILDAL	binds	no binding			
MYC-tagged DDOST (protein, UniProt P39656 43-456) SGPRTLVLLDNLNVRETHSLFFRSLKDRGFELTFKTADDPSLSLIKYGEFLYDNLIIFSPSVEDFGGNINVETISAFIDGGGSVLVAASSDIGDPLRELGSECGIEFDEEKTAVIDHHNYDISDLGQHTLIVADTENLLKAPTIVGKSSLNPILFRGVGMVADPDNPLVLDILTGSSTSYSFFPDKPITQYPHAVGKNTLLIAGLQARNNARVIFSGSLDFFSDSFFNSAVQKAAPGSQRYSQTGNYELAVALSRWVFKEEGVLRVGPVSHHRVGETAPPNAYTVTDLVEYSIVIQQLSNGKWVPFDGDDIQLEFVRIDPFVRTFLKKKGGKYSVQFKLPDVYGVFQFKVDYNRLGYTHLYSSTQVSVRPLQHTQYERFIPSAYPYYASAFSMMLGLFIFSIVFLHMKEKEKSD	binds	no binding			

Second part, the binder after the results:

binding [1]	binding [2]	binding [3]	binding [4]	binding [5]	Binder
		binds	no binding	binds	endogenous RPN1 (protein, UniProt P04843 24-607) ASSEAPPLINEDVKRTVDLSSHLAKVTAEVVLAHLGGGSTSRATSFLLALEPELEARLAHLGVQVKGEDEEENNLEVRETKIKGKSGRFFTVKLPVALDPGAKISVIVETVYTHVLHPYPTQITQSEKQFVVFEGNHYFYSPYPTKTQTMRVKLASRNVESYTKLGNPTRSEDLLDYGPFRDVPAYSQDTFKVHYENNSPFLTITSMTRVIEVSHWGNIAVEENVDLKHTGAVLKGPFSRYDYQRQPDSGISSIRSFKTILPAAAQDVYYRDEIGNVSTSHLLILDDSVEMEIRPRFPLFGGWKTHYIVGYNLPSYEYLYNLGDQYALKMRFVDHVFDEQVIDSLTVKIILPEGAKNIEIDSPYEISRAPDELHYTYLDTFGRPVIVAYKKNLVEQHIQDIVVHYTFNKVLMLQEPLLVVAAFYILFFTVIIYVRLDFSITKDPAAEARMKVACITEQVLTLVNKRIGLYRHFDETVNRYKQSRDISTLNSGKKSLETEHKALTSEIALLQSRLKTEGSDLCDRVSEMQKLDAQVKELVLKSAVEAERLVAGKLKKDTYIENEKLISGKRQELVTKIDHILDAL
		binds	no binding	binds	endogenous DDOST (protein, UniProt P39656 43-456) SGPRTLVLLDNLNVRETHSLFFRSLKDRGFELTFKTADDPSLSLIKYGEFLYDNLIIFSPSVEDFGGNINVETISAFIDGGGSVLVAASSDIGDPLRELGSECGIEFDEEKTAVIDHHNYDISDLGQHTLIVADTENLLKAPTIVGKSSLNPILFRGVGMVADPDNPLVLDILTGSSTSYSFFPDKPITQYPHAVGKNTLLIAGLQARNNARVIFSGSLDFFSDSFFNSAVQKAAPGSQRYSQTGNYELAVALSRWVFKEEGVLRVGPVSHHRVGETAPPNAYTVTDLVEYSIVIQQLSNGKWVPFDGDDIQLEFVRIDPFVRTFLKKKGGKYSVQFKLPDVYGVFQFKVDYNRLGYTHLYSSTQVSVRPLQHTQYERFIPSAYPYYASAFSMMLGLFIFSIVFLHMKEKEKSD
